Measured values reported in publication PMC4336329 (PLoS ONE, 2015).
Out of some 310,000 compounds screened, about 2,200 (0.71%) showed an effect of 50% or more. Effects have a minus sign here. The list shows a part of the results.

target: human ether-à-go-go-related gene (hERG) potassium channel (human, UniProt Q12809); experiment: primary screen, population patch clamp on CHO cells stably expressing hERG
Sequence (Q12809 whole entry, looked up): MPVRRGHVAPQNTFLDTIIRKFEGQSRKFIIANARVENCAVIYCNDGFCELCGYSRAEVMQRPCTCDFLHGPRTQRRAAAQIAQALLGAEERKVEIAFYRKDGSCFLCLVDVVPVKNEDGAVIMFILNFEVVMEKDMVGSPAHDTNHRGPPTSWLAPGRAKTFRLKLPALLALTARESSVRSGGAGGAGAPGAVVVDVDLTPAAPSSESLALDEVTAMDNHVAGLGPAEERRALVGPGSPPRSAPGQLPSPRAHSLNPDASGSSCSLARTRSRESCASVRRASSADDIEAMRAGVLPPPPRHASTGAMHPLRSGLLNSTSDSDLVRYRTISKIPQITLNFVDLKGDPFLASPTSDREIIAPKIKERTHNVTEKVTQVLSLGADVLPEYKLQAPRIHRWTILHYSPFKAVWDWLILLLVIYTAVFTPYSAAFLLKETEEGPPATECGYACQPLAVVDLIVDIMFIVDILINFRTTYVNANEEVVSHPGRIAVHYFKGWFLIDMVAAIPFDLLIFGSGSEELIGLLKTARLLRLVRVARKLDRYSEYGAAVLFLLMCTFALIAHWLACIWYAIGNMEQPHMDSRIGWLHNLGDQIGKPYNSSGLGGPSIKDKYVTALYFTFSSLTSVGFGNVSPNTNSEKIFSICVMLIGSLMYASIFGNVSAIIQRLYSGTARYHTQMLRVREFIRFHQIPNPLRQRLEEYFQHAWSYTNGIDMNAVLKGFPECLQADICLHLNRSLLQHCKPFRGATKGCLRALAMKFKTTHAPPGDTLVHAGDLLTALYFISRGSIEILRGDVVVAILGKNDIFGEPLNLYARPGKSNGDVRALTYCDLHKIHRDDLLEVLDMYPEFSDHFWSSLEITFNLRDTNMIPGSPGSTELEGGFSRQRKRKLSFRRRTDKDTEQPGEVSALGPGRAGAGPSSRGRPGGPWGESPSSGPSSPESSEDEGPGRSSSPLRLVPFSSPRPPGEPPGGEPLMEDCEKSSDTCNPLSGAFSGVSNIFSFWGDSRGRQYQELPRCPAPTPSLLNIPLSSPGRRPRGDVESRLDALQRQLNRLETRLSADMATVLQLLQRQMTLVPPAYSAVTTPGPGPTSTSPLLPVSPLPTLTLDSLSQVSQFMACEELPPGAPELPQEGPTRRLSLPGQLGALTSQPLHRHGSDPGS

SMILES | hERG current change (%, negative = inhibition) at 1uM
Cc1c(OC(C)C(=O)O)ccc2c(-c3ccccc3)cc(=O)oc12 (centres unmarked) | 11.5%
COc1ccc2c(-c3cccnc3)cc(=O)[nH]c2c1 | 0.833%
COC(=O)C1=C(c2ccc(OC(F)(F)F)cc2)C[C@@H]2CC[C@H]1N2C(=O)NCCc1ccccc1 | 2.34%
COc1cccc(C(=O)NCC(=O)N2CCC3(CC2)NCCc2[nH]cnc23)c1OC | 10.4%
CN(c1ccccc1C(=O)Nc1cccc(C(F)(F)F)c1)S(C)(=O)=O | 8.78%
Cc1ccc(C(=O)COC(=O)CCCC(=O)Nc2cc(C(F)(F)F)ccc2Cl)cc1C | 12.5%
CC1CCCCN1CCCNC(=O)c1ccc2nc(N3CCCCC3)sc2c1 (centres unmarked) | -0.784%
Cc1nnc(NC(=O)C(C)Sc2nnc(-c3ccco3)n2C(C)C)s1 (centres unmarked) | 16.3%
COc1ccccc1NC(=O)Nc1nc(CC(=O)Nc2cc(F)ccc2F)cs1 | 7.89%
COc1ccc(Cn2c(=O)[nH]c3cc(OC)c(OC)cc3c2=O)cc1 | 11.7%
CCOC(=O)c1ccccc1NC(=O)Cn1c(=O)n(Cc2ccccc2)c(=O)c2c(C)c(C)sc21 | 7.49%
O=C(CSc1ccc2nnc(-c3cccs3)n2n1)N1CCCC1 | -5.17%
NC(=O)c1sc2nnc(-c3ccccc3)c(-c3ccccc3)c2c1N | 10.3%
CCCCc1ccc(NC(=O)C(=O)NCCN2CCN(C(=O)c3ccc([N+](=O)[O-])cc3)CC2)cc1 | 0.387%
CCCn1nnnc1NCc1ccc(F)cc1 | 7.19%
CNC(=O)C1CC(=O)N(Cc2ccc3c(c2)OCO3)C(=Nc2ccc(OC)cc2)S1 (centres unmarked) | 10.1%
CCCNC(=O)N1[C@H]2CC[C@@H]1C(C(=O)OC)=C(c1ccc(OC)c(OC)c1)C2 | 6.5%
Cc1ccc(C(=O)CCC(=O)NC2=NCCS2)cc1 | 10.2%
O=C(COc1ccc(Cl)cc1)NCc1nnc(SCC(=O)c2ccccc2)o1 | 10.8%

SMILES | hERG current change (%, negative = inhibition) at 1uM
CCOC(=O)C1(Cc2ccccc2)CCN(Cc2cccc3c2OCO3)CC1 | 1.36%
Cc1cc(OCC(=O)NC(C)C)ccc1Cl | 10.7%
CCn1nc(C)c(CNC(=O)c2cc(COc3ccc(F)cc3Cl)on2)c1C | -0.535%
COc1ccc(-c2csc(NC(=O)CCN3C(=O)C4CC=CCC4C3=O)n2)cc1OC (centres unmarked) | 1.89%
CCN(Cc1ccccc1)C(=O)Cc1c[nH]c2ccccc12 | 11%
COC(=O)CSc1nnc(CNC(=O)c2ccccc2OC)n1C | 4%
Cc1ccccc1OCC(=O)Nc1c2c(nn1C(C)(C)C)CS(=O)(=O)C2 | 0.33%
Cc1ccc2c(cnn2C(=O)CCC(=O)NCc2cccc(Cl)c2)c1 | 14.3%
CCc1ccccc1NC(=O)CN1CCN(C(=O)CNC(=O)c2ccc(-c3ccccc3)cc2)CC1 | -7.14%
O=c1[nH]c2ccccc2nc1-c1c[nH]c2ccccc12 | 17.9%
CCOCCCNC(=O)CN1CCN(c2ccc(F)cc2)CC1.O=C(O)C(=O)O | -5.91%
O=C(Cc1ccccc1)NC(Cc1ccc(Cl)cc1)C(=O)O (centres unmarked) | 3%
c1cnc2c(c1)ccc1cccnc12 | 15.4%
CCOc1ccc(S(=O)(=O)N2CCC(C(=O)N3CCN(Cc4ccccc4)CC3)CC2)cc1 | 6.19%
COc1cc(Cl)c(C)cc1NC(=O)CNC(C)c1ccccc1OC (centres unmarked) | 7.79%
C/C(=N/OCO/N=C(\C)c1ccc(F)cc1F)c1ccc(F)cc1F | 21.9%
CCOc1cc(C2CC(=O)Nc3cc(C)c(C)cc32)ccc1O (centres unmarked) | 3.52%
COC(=O)Cn1c(=NC(=O)c2ccc(OC)cc2)sc2cc(OC)ccc21 | 7.44%
Cc1nn(CCCNC(=O)C2CCCO2)cc1Br (centres unmarked) | 14.2%

SMILES | hERG current change (%, negative = inhibition) at 1uM
CC(=O)OCC(=O)Nc1ccc(Cl)cc1Cl | 9.04%
CCN=C1SC(CC(=O)Nc2ccc(C(F)(F)F)cc2)C(=O)N1CC (centres unmarked) | 1.51%
CCN1CCN(C(=O)C(=O)c2cn(CC(=O)N3CCCC3)c3ccccc23)CC1 | 15.5%
O=C(CCC(=O)OCC(=O)c1ccc(Cl)cc1)NC1CCCCC1 | 13.6%
O=c1[nH]c(=O)n(-c2ccc(F)cc2)c(O)c1C=NCCN1CCCCC1 | -12.8%
O=C(NCCn1ccc2ccccc21)c1ccc2c(c1)OCO2 | 7.73%
COc1cccc(C(=O)NC2CCN(CC(=O)Nc3cccc(C)c3C)CC2)c1 | 17.6%
CCOC(=O)N1CCC(NC(=O)c2cc3c(-c4ccccc4F)nn(C)c3s2)CC1 | 10.9%
CC(=O)N1CCC2(CC1)CC(=O)c1cc(Cl)ccc1O2 | -7.88%
COc1cccc(C(C)NC(=O)Nc2cccc(C(F)(F)F)c2)c1 (centres unmarked) | -0.328%
COc1ccc(NC(=O)CN2C(=O)COc3ccc(S(=O)(=O)N4CCCCC4)cc32)c(OC)c1 | 11.1%
Cc1cc(C)n2nc(C(=O)NCc3cccc(C(F)(F)F)c3)nc2n1 | 4.77%
COc1cc(OC)c2ccc(=O)oc2c1C(CCN1CCN(c2ccccc2)CC1)c1ccc(N(C)C)cc1 (centres unmarked) | -2.7%
CCCNC1=CC(=O)CC(C)(C)C1 | 6.39%
O=C(O)C1CCCCC1C(=O)NCCCN1CCCC1=O (centres unmarked) | 18.7%
COC(=O)CCCC1=CC2=C(c3ccccc3)C(=O)C(C)(OC(=O)C3CCCC3)C(=O)C2=CN1C1CC1 (centres unmarked) | 7.39%
COc1ccc(-c2csc(NC(=O)COC(=O)c3ccc(Br)o3)n2)cc1 | 13.6%
Cc1c(C(=O)NCc2cccnc2)oc2ccc(S(=O)(=O)N3CCCCC3)cc12 | -8.1%
